According to PubChem BioAssay AID463173 (ICCB-Longwood Screening Facility, Harvard Medical School, 2010):
The campaign covered roughly 52,000 compounds. About 1,700 (3.3%) were called active. No stated cut-off is given here; in the data, active means survival mostly below about 52% (no sharp cut-off); inactive means mostly above about 56%. The list shows a part of the results.

The compounds below were run on Wild type (assay: S. aureus survival, RN4220 and DeltatarO strains – OD600, teichoic acid synthesis inhibitors, primary screen (AID 463173)). Details: S. aureus RN4220 wild type/DeltatarO growth, OD600, 18 h, stronger effect = lower value, screened at 18.75 µg/mL (by protocol).

Structure (SMILES) | survival
COC(=O)c1ccc(NC(=O)CN(C)S(=O)(=O)c2ccc(Br)s2)cc1 | inactive: 72%
COc1ccc(Cn2ccnc2SCC(=O)Nc2nnc(C)s2)cc1 | inactive: 115%
Cc1nn2c(C)c(C(=O)NCc3ccc(OC(C)C)cc3)cnc2c1-c1ccc(F)cc1 | inactive: 76%
CCn1c(=O)cc(OCC(=O)N2CCN(c3cccc(C)c3C)CC2)c2ccccc21 | inactive: 131%
Cc1cccc(NC(=O)CN2C(=O)C(c3ccc(F)cc3)=NC23CCCCCC3)c1 | inactive: 98%
COc1cccc(CNC(=O)CN2C(=O)COc3ccc(S(=O)(=O)N4CCOCC4)cc32)c1 | inactive: 98%
Cc1ccc(CNC(=O)c2ccc(N3CCCC3)c(NC(=O)Nc3ccc(F)c(Cl)c3)c2)cc1 | inactive: 77%
Cc1ccc2c(c1)-c1c(c(C(=O)N3CCN(c4cc(C)ccc4C)CC3)nn1C)CS2 | inactive: 88%
CCN(CCCNC(=O)c1nn(-c2ccc(C)cc2)c(=O)c2c1c1ccccc1n2C)c1cccc(C)c1 | inactive: 83%
Cc1ccc(CNC(=O)C(C)n2nc(C)c3sc4ccccc4c3c2=O)cc1 (stereo unspecified) | inactive: 105%
Cc1cc(C)c(NC(=O)Cn2c(=O)n(Cc3ccc(C(=O)NCc4ccc5c(c4)OCO5)cc3)c(=O)c3ccccc32)c(C)c1 | inactive: 83%
COc1ccc(NC(=O)Cn2c(=O)c3ccccc3n3nncc23)c(OC)c1 | inactive: 85%
CC(=O)c1c(C)oc2c1cc(NS(=O)(=O)c1ccc(C(C)(C)C)cc1)c1ccccc12 | inactive: 50%
COc1ccc(NC(=O)c2cc(S(=O)(=O)N3CCCC3)ccc2OC)cc1 | inactive: 77%
COC(=O)c1ccccc1NC(=O)CN1C(=O)COc2ccc(Cl)cc21 | inactive: 62%
COc1cccc(C(=O)Oc2c(Sc3ccc(C)cc3)c(C)nn2C(C)(C)C)c1OC | inactive: 23%
Clc1ncnc2c1oc1ccccc12 | inactive: 118%
CC(C)Cc1nn2c(=O)cc(COC(=O)c3ccc(NC(=O)C4CCCCC4)cc3)nc2s1 | inactive: 73%
O=C(Oc1ccccc1)c1ccc2nccnc2c1 | inactive: 122%

Structure (SMILES) | survival
O=C(CNS(=O)(=O)c1ccc(Cl)cc1)NN=C1CCCCC1 | inactive: 106%
CCOc1ccccc1NC(=O)c1ccc(F)c(S(=O)(=O)N2CCN(c3ccc(F)cc3)CC2)c1 | inactive: 60%
CCOc1ccc(NC(=O)c2cc(C)nc3c2c(C)nn3-c2ccc(C)cc2)cc1 | inactive: 130%
Cc1cccc(C(=O)N2CCc3cc(CNC(=O)CSc4ccccc4)ccc32)c1 | inactive: 73%
CCOc1ccc(C(=O)NCCSc2c(C)[nH]c3ccccc23)cc1OCC | inactive: 86%
CCOc1ccc(C(=O)NCC(c2cccs2)S(=O)(=O)c2ccccc2)cc1 (stereo unspecified) | inactive: 113%
CCc1cc2c(=O)[nH]cnc2s1 | inactive: 106%
Cc1ccccc1CNC(=O)CSc1nnc(C)c2c(C)n(-c3ccccc3)nc12 | inactive: 127%
COc1ccccc1CNC(=O)c1cc2c(s1)-c1ccc(Cl)cc1SC2 | inactive: 88%
O=C1c2ccccc2-c2n[nH]c(=S)nc21 | inactive: 106%
CCCCOc1ccc(C2C(C(=O)Nc3ccccc3OC)=C(C)Nc3nnnn32)cc1OC (stereo unspecified) | inactive: 108%
CC(=O)N1CCCc2cc(S(=O)(=O)N3CCC(C(=O)Nc4ccc(C)cc4Cl)CC3)ccc21 | inactive: 54%
Cc1ccc(S(=O)(=O)n2nc(C)c(S(=O)(=O)N3CCCCCC3)c2C)cc1C | inactive: 59%
Cc1ccn2c(Nc3ccc4c(c3)OCCO4)c(-c3ccccc3O)nc2c1 | inactive: 82%
O=C(COc1ccc(Cl)cc1)Nc1nnc(S(=O)(=O)N2CCCCCC2)s1 | inactive: 75%
CCOc1cccc(CC(=O)N2CCc3c([nH]c4ccc(OC)cc34)C2c2ccc(F)cc2)c1OCC (stereo unspecified) | inactive: 89%
CCOC(=O)c1c(NC(=O)c2cc(-c3ccc(OC)c(OC)c3)on2)sc(C)c1C | inactive: 86%
CCN(CC)CCCNC(=O)CCC(=O)NNc1nc2ccccc2c2nc(C)nn12 | inactive: 81%
COc1ccccc1N1CCN(C(CNC(=O)C(=O)NCc2cccnc2)c2cccnc2)CC1 (stereo unspecified) | inactive: 82%

Structure (SMILES) | survival
Cc1cc(NC(=O)Nc2nnc(N3CCCCCC3)s2)ccc1Br | inactive: 88%
Cc1ccc(NC(=O)c2oc3c(c2C)-c2[nH]ncc2CC3)c(Cl)c1 | inactive: 87%
Cc1ccc(CNC(=O)c2ccc(Nc3nc4ccccc4n4nnnc34)cc2)cc1 | inactive: 138%
Cc1ccc(-c2nn(-c3ccccc3)c3c2cnc2ccccc23)cc1C | inactive: 68%
COc1ccc(OC)c(-c2noc(N3CCN(c4ccc(Cl)cc4)CC3)n2)c1 | inactive: 72%
Cn1cnc(S(=O)(=O)N2CCCC(C(=O)NCc3ccc(F)cc3)C2)c1 (stereo unspecified) | inactive: 47%
CC(C)c1ccc(NS(=O)(=O)c2cc(Br)cc3c2N(C(=O)C2CC2)CC3)cc1 | inactive: 69%
CCn1c(-c2ccccc2)cnc1SCC(=O)c1sc2c(c1C#N)CCCC2 | inactive: 110%
CCOc1ccc(NC(=O)C(=O)NCCc2csc(-c3ccc(C(F)(F)F)cc3)n2)cc1 | inactive: 75%
COc1ccc(CCNC(=O)c2ccc3c(c2)N(Cc2ccccc2)CCS3)cc1OC | inactive: 86%
Cc1ccc(C(=O)N2CCn3c4c(c5cc(C)ccc53)CCCC42)cc1 (stereo unspecified) | active: -10%
Cc1cc(C)cc(NS(=O)(=O)c2ccc3[nH]cc(C(=O)NCCc4ccccc4)c(=O)c3c2)c1 | inactive: 75%
COc1ccc(NC(=O)CN2CCN(Cc3ccccc3Cl)S2(=O)=O)cc1Cl | inactive: 71%
Cc1nn2c(=O)cc(COC(=O)c3ccccc3NC(=O)c3cccs3)nc2s1 | inactive: 64%
CC(C)NC(=O)c1ccc2c(c1)N(Cc1cccc(Cl)c1)C(=O)c1ccccc1S2=O (stereo unspecified) | inactive: 47%
CCc1ccccc1NS(=O)(=O)c1ccc2c(c1)CCCN2C(=O)C1CCC1 | inactive: 120%
COC(=O)c1sc2c(c1C)c(=O)n(-c1ccccc1)c(=O)n2CC(=O)Nc1cccc(C)c1 | inactive: 60%
CCCN1C(=O)C(O)(CC(=O)c2ccc(C(C)C)cc2)c2ccccc21 (stereo unspecified) | inactive: 129%
